Where a name gives a salt, the structure may show the parent alone. ± gives the standard deviation of the averaged measurements. The full ranking holds about 1,900 compounds; the median of “normalised cell viability (NPI; 0 = phenylarsine oxide control, 1 = DMSO control)” is about 1, and the lowest 2% start at about 0.039. The list shows a part of the results.
Tested on: NCI-H1944
Experiment: normalised cell viability (NPI; 0 = phenylarsine oxide control, 1 = DMSO control) (fraction of DMSO control); NCI-H1944 is a non-small cell lung cancer line; higher = more viable cells (less compound toxicity)
Details: 6 days
[1] = glucocorticoid arm: hydrocortisone 2.75 uM co-treatment, compound 1 µM
[2] = glucocorticoid arm: hydrocortisone 2.75 uM co-treatment, compound 5 µM
[3] = glucocorticoid arm: hydrocortisone 2.75 uM pre-treated 2 days and continued, compound 1 µM
[4] = glucocorticoid arm: hydrocortisone 2.75 uM pre-treated 2 days and continued, compound 5 µM
[5] = glucocorticoid arm: vehicle, compound 1 µM
[6] = glucocorticoid arm: vehicle, compound 5 µM
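Note: CTB read-out in 384-well plates, mean of triplicate wells, normalised per plate against 1 µM phenylarsine oxide and 0.1% DMSO, compounds added 24 h after seeding.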

## O=C1NC(=O)[C@@H](c2cn3c4c(cccc24)CCC3)[C@@H]1c1c[nH]c2ccccc12 [ARQ 197 (Tivantinib)]
[1]
  normalised cell viability: 0.447 ± 0.025
[2]
  normalised cell viability: 0.36 ± 0.0085
[3]
  normalised cell viability: 0.745 ± 0.029
[4]
  normalised cell viability: 0.751 ± 0.007
[5]
  normalised cell viability: 0.0789 ± 0.0095
[6]
  normalised cell viability: 0.0435 ± 0.0048

## CCCCCCCCCCCCCCSCC(=O)O [Tetradecylthioacetic acid]
[1]
  normalised cell viability: 0.994 ± 0.025
[2]
  normalised cell viability: 1.01 ± 0.015
[3]
  normalised cell viability: 0.816 ± 0.31
[4]
  normalised cell viability: 1.01 ± 0.01
[5]
  normalised cell viability: 0.995 ± 0.0044
[6]
  normalised cell viability: 0.9917 ± 0.0064

## CCCn1cnc2c1c(=O)n(CCCCC(C)=O)c(=O)n2C [Propentofylline]
[1]
  normalised cell viability: 0.9977 ± 0.0025
[2]
  normalised cell viability: 1 ± 0.014
[3]
  normalised cell viability: 0.881 ± 0.21
[4]
  normalised cell viability: 1.01 ± 0.013
[5]
  normalised cell viability: 0.9887 ± 0.0025
[6]
  normalised cell viability: 0.9737 ± 0.0072

## CC(C)(CO)Cc1cc(C(C)(C)C)c(O)c(C(C)(C)C)c1
[1]
  normalised cell viability: 1.017 ± 0.0058
[2]
  normalised cell viability: 1.02 ± 0.017
[3]
  normalised cell viability: 1.01 ± 0.01
[4]
  normalised cell viability: 0.995 ± 0.0071
[5]
  normalised cell viability: 0.997 ± 0.003
[6]
  normalised cell viability: 1.002 ± 0.0072

## O=C(O)CN(CCN(CC(=O)O)CC(=O)O)CCN(CC(=O)O)CC(=O)O [Diethylenetriaminepentaacetic acid]
[1]
  normalised cell viability: 1.004 ± 0.01
[2]
  normalised cell viability: 0.994 ± 0.028
[3]
  normalised cell viability: 0.999 ± 0.011
[4]
  normalised cell viability: 0.991 ± 0.027
[5]
  normalised cell viability: 0.9943 ± 0.0031
[6]
  normalised cell viability: 0.995 ± 0.007

## C#CCN(C)CCCOc1ccc(Cl)cc1Cl [Clorgyline hydrochloride]
[1]
  normalised cell viability: 0.988 ± 0.0056
[2]
  normalised cell viability: 0.987 ± 0.011
[3]
  normalised cell viability: 0.994 ± 0.017
[4]
  normalised cell viability: 1.03 ± 0.06
[5]
  normalised cell viability: 0.9787 ± 0.0011
[6]
  normalised cell viability: 0.9837 ± 0.006

## CC(C(=O)Nc1cccc(/N=C/c2c(O)ccc3ccccc23)c1)c1ccccc1 (stereo not drawn) [Salermide]
[1]
  normalised cell viability: 0.999 ± 0.014
[2]
  normalised cell viability: 1.01 ± 0.02
[3]
  normalised cell viability: 0.9942 ± 0.0055
[4]
  normalised cell viability: 1 ± 0.035
[5]
  normalised cell viability: 0.9967 ± 0.0083
[6]
  normalised cell viability: 1.002 ± 0.01

## CC(C)NCC(O)c1cc(O)cc(O)c1 (stereo not drawn) [Metaproterenol hemisulfate]
[1]
  normalised cell viability: 1.002 ± 0.0072
[2]
  normalised cell viability: 1.01 ± 0.028
[3]
  normalised cell viability: 1.01 ± 0.019
[4]
  normalised cell viability: 1.04 ± 0.095
[5]
  normalised cell viability: 0.983 ± 0.0046
[6]
  normalised cell viability: 0.989 ± 0.0053

## O=[N+]([O-])c1cc2nc(O)c(O)nc2cc1[N+](=O)[O-]
[1]
  normalised cell viability: 0.985 ± 0.012
[2]
  normalised cell viability: 0.981 ± 0.013
[3]
  normalised cell viability: 0.99 ± 0.0089
[4]
  normalised cell viability: 0.965 ± 0.014
[5]
  normalised cell viability: 0.9743 ± 0.0064
[6]
  normalised cell viability: 0.971 ± 0.007

## CC(=O)/C(C)=N/O [2,3-Butanedione monoxime]
[1]
  normalised cell viability: 0.997 ± 0.0052
[2]
  normalised cell viability: 0.98 ± 0.033
[3]
  normalised cell viability: 0.986 ± 0.017
[4]
  normalised cell viability: 0.9965 ± 0.00071
[5]
  normalised cell viability: 0.987 ± 0.0066
[6]
  normalised cell viability: 0.9773 ± 0.0085

## COCC(=O)O[C@]1(CCN(C)CCCc2nc3ccccc3[nH]2)CCc2cc(F)ccc2[C@@H]1C(C)C [Mibefradil dihydrochloride]
[1]
  normalised cell viability: 0.977 ± 0.011
[2]
  normalised cell viability: 0.0303 ± 0.012
[3]
  normalised cell viability: 1 ± 0.015
[4]
  normalised cell viability: 0.827 ± 0.24
[5]
  normalised cell viability: 0.9887 ± 0.0031
[6]
  normalised cell viability: 0.00844 ± 0.014

## O=c1c2ccccc2nc2n1CCc1c-2[nH]c2ccccc12 [Rutaecarpine]
[1]
  normalised cell viability: 1.03 ± 0.015
[2]
  normalised cell viability: 1.06 ± 0.02
[3]
  normalised cell viability: 1.04 ± 0.036
[4]
  normalised cell viability: 1.05 ± 0.02
[5]
  normalised cell viability: 1.001 ± 0.0079
[6]
  normalised cell viability: 0.996 ± 0.004

## OC[C@H]1O[C@@H](n2cnc3c2N=CNC[C@H]3O)C[C@@H]1O [Pentostatin]
[1]
  normalised cell viability: 1.02 ± 0.011
[2]
  normalised cell viability: 1.01 ± 0.022
[3]
  normalised cell viability: 1.03 ± 0.011
[4]
  normalised cell viability: 1.04 ± 0.01
[5]
  normalised cell viability: 1.013 ± 0.0058
[6]
  normalised cell viability: 1.01 ± 0.011

— the supplement of paper PMC8285479
